# Results as given in PubChem BioAssay (Tox21).
# “And” between values parts separate entries of the source, which are not always exact repeats. Equal values may be shown once. The shares of active, inactive and inconclusive entries below differ from those in the screen. For some of these results: Potencies beside an inconclusive call are fits to weak or partial responses and may not hold up. The source made the active and inactive calls. Unless noted, the call rests on the fitted dose curve; in most records, active means well fitted curve in the direction sought with a large enough effect in the repeat runs; inconclusive means weak or mixed curves; inactive means no such curve, though single readings can be large; an effect the other way counts as inactive or inconclusive.
# Legend:
# [1] = target: Peroxisome proliferator-activated receptor gamma (Homo sapiens) (UniProt P37231); assay: qHTS assay to identify small molecule antagonists of the peroxisome proliferator-activated receptor gamma (PPARg) signaling pathway (AID 743191; calls by dose curve; further: nearly all actives have a fitted effect of over 30% in size; further: potency means the concentration at half of the fitted maximal effect; on ratio activity, negative = inhibition: on the % scale 0 is the no-effect control and ±100 the full control effect); details: HEK293H PPARg-UAS-bla, beta-lactamase ratio, antagonist, 17 h; ratio activity, negative = inhibition: at 62.6 µM (top of the series) unless noted
# UniProt P37231, sequence (P37231 whole entry, looked up): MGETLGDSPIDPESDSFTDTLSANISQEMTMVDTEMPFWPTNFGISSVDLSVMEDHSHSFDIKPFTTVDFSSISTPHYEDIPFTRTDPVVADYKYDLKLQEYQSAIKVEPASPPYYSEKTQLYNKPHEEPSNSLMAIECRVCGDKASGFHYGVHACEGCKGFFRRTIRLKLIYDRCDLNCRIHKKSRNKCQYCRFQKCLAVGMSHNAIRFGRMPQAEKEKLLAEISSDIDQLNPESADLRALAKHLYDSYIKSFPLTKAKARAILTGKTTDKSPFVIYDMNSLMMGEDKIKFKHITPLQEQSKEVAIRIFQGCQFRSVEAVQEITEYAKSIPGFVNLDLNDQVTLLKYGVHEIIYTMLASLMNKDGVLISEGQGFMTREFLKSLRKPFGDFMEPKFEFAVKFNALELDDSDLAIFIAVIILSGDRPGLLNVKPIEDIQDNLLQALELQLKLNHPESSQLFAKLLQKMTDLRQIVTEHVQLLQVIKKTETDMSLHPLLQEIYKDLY
# Method in brief: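 Beta-lactamase reporter under UAS control in HEK293H PPARg-bla cells; compound treatment 17 h at 37C. Read-out: fluorescence intensity after 1 h room-temperature incubation with LiveBLAzer B/G FRET substrate.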
# [2] = qHTS assay to identify small molecule agonists of the endoplasmic reticulum stress response signaling pathway (AID 1159516; active means well fitted activation curve with a large enough effect in the signal ratio in the repeat runs, not every such curve was filed as active; inconclusive means weak or mixed curves, or effect the other way; the % refers to the signal ratio; further: potency means the concentration at half of the fitted maximal effect); details: ESRE-bla HeLa, ER stress beta-lactamase reporter, 5 h; activation: at 61 µM (top of the series) unless noted
# Method in brief: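 Cells are seeded at 1,500 per well and incubated overnight. Compounds in DMSO are added for 5 hr at 37 C, then beta-lactamase FRET substrate for 2 hr at room temperature, and fluorescence at 460 and 530 nm is measured.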
# [3] = qHTS assay for small molecule agonists of the antioxidant response element (ARE) signaling pathway (AID 743202; active means well fitted activation curve with a large enough effect in the signal ratio in the repeat runs, not every such curve was filed as active; inconclusive means weak or mixed curves, or effect the other way; inactive means no such curve, though single readings can be large or run the other way; the % refers to the signal ratio; further: potency means the concentration at half of the fitted maximal effect); details: HepG2 ARE-bla reporter, beta-lactamase FRET, 16 h; activation: at 73.3 µM (top of the series) unless noted
# Method in brief: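 Beta-lactamase reporter activity, read as fluorescence intensity, reflects ARE/Nrf2 pathway induction in HepG2 cells after 16 h compound exposure at 37 C; substrate loading was 2 h at room temperature.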
# [4] = qHTS assay for small molecule agonists of the antioxidant response element (ARE) signaling pathway - cell viability counter screen (AID 743203; calls by dose curve; further: on the % scale 0 is the no-effect control and ±100 the full control effect; nearly all actives have a fitted effect of over 55% in size)
# Method in brief: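 Cytotoxicity was tested in parallel with the ARE reporter screen. ARE-bla HepG2 cells were exposed to compounds for 16 hrs, and viability was taken from CellTiter-Glo luminescence.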
# [5] = qHTS assay for small molecule activators of the heat shock response signaling pathway (AID 743210; active means well fitted activation curve with a large enough effect in the signal ratio in the repeat runs, with a control signal flat, not every such curve was filed as active; inconclusive means weak or mixed curves; the % refers to the signal ratio; further: potency means the concentration at half of the fitted maximal effect); details: HeLa HSE-bla reporter, beta-lactamase ratio, 5 h; activation: at 62.6 µM (top of the series)
# Method in brief: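 Fluorescence from a cleaved B/G FRET substrate (2.5 h, room temp) reports HSE-driven beta-lactamase in HeLa cells treated 5 h at 37 C with DMSO-dissolved compounds.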
# [6] = qHTS assay to identify small molecule agonists of the vitamin D receptor (VDR) signaling pathway - cell viability counter screen (AID 743224); further: nearly all actives have a fitted effect of over 50% in size; further: potency means the concentration at half of the fitted maximal effect
# Method in brief: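 Cells: VDR-bla, 2,000/well, settled 4 h. Treatment: compounds in DMSO, 16 h, 37C/5% CO2. Readout: CellTiter-Glo luminescence after 30 min RT.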
# [7] = qHTS assay to identify small molecule antagonists of the vitamin D receptor (VDR) signaling pathway - cell viability counter screen (AID 743225); details: VDR-bla HEK293T viability, CellTiter-Glo luminescence, 16 h; viability change, negative = cytotoxic: at 61 µM (top of the series) unless noted; further: potency means the concentration at half of the fitted maximal effect; nearly all actives have a fitted effect of over 50% in size
# Method in brief: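 Compounds were pinned onto VDR-bla HEK 293T cells together with 1-alpha,25-dihydroxyvitamin D3 at 3 nM final. After 16 h at 37C and 5% CO2 plus the reporter readout, cell viability was measured by CellTiter-Glo luminescence (30 min, room temperature).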
# [8] = qHTS assay for small molecule activators of the heat shock response signaling pathway - cell viability counter screen (AID 743209); details: HSE-bla HeLa viability, CellTiter-Glo luminescence, 5 h; activity change, negative = cytotoxicity: at 62.6 µM (top of the series) unless noted; further: potency means the concentration at half of the fitted maximal effect; nearly all actives have a fitted effect of over 50% in size
# Method in brief: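 Cytotoxicity counter screen run in parallel with the HSE beta-lactamase reporter, using the same wells. HeLa HSE-bla cells received compound for 5 h at 37 C; ATP-based CellTiter-Glo luminescence was measured after 30 min at room temperature.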
# [9] = target: Peroxisome proliferator-activated receptor delta (Homo sapiens) (UniProt Q03181); assay: qHTS assay to identify small molecule antagonists of the peroxisome proliferator-activated receptor delta (PPARd) signaling pathway (AID 743215; active means well fitted inhibition curve with a large enough effect in the signal ratio in the repeat runs, not every such curve was filed as active; inconclusive means weak or mixed curves, or effect the other way; inactive means no such curve, though single readings can be large or run the other way; the % refers to the signal ratio; further: potency means the concentration at half of the fitted maximal effect); details: HEK293H PPARd-UAS-bla, beta-lactamase FRET ratio, antagonist, 17 h; ratio activity, negative = inhibition: at 62 µM (top of the series) unless noted
# UniProt Q03181, sequence (Q03181 whole entry, looked up): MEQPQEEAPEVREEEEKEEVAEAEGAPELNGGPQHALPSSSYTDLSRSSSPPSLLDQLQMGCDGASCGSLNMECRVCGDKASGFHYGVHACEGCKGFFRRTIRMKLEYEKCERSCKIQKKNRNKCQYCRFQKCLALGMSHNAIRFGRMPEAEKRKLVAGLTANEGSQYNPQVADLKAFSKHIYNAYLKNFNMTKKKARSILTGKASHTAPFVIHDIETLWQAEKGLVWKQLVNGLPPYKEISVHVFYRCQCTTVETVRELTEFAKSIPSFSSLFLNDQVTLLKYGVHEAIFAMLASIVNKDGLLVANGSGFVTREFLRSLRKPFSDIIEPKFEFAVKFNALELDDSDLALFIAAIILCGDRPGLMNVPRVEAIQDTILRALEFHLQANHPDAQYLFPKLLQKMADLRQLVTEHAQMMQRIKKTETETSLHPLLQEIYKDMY
# Method in brief: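 Cells: HEK293H with a UAS-driven beta-lactamase reporter responsive to PPARd. Compounds were co-added with L165041 (300 nM, final) and incubated 17 h at 37 C before a 2 h room-temperature FRET substrate step and fluorescence reading.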
# [10] = target: Bile acid receptor (Homo sapiens) (UniProt Q96RI1); assay: qHTS assay to identify small molecule antagonists of the farnesoid-X-receptor (FXR) signaling pathway (AID 743217; active means well fitted inhibition curve with a large enough effect in the signal ratio in the repeat runs, not every such curve was filed as active; inconclusive means weak or mixed curves, or effect the other way; inactive means no such curve, though single readings can be large or run the other way; the % refers to the signal ratio; further: potency means the concentration at half of the fitted maximal effect); details: HEK293T FXR-UAS-bla, beta-lactamase ratio, CDCA-stimulated, 16 h; activity change, negative = inhibition: at 62.6 µM (top of the series) unless noted
# UniProt Q96RI1, sequence (Q96RI1 whole entry, looked up): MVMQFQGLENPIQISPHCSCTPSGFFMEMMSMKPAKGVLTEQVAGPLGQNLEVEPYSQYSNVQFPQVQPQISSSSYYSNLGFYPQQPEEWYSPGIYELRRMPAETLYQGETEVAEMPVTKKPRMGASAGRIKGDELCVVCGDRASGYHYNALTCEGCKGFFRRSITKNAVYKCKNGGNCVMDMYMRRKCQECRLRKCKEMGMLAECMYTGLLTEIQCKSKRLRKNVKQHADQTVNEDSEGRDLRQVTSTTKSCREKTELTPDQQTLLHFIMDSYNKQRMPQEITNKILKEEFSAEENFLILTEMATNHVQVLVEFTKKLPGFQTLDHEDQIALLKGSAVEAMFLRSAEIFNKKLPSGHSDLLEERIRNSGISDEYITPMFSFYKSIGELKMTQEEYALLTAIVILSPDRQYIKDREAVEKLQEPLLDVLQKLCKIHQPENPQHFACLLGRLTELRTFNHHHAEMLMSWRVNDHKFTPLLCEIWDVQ
# Method in brief: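 Cells carrying a UAS-driven beta-lactamase reporter (GeneBLAzer FXR-UAS-bla HEK 293T) were plated and rested 5 h at 37 °C. Compounds in DMSO were added alongside chenodeoxycholic acid agonist at 50 uM final and left 16 h at 37 °C before FRET substrate readout.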
# [11] = target: Vitamin D3 receptor (Homo sapiens) (UniProt P11473); assay: qHTS assay to identify small molecule antagonists of the vitamin D receptor (VDR) signaling pathway (AID 743223; active means well fitted inhibition curve with a large enough effect in the signal ratio in the repeat runs, not every such curve was filed as active; inconclusive means weak or mixed curves, or effect the other way; inactive means no such curve, though single readings can be large or run the other way; the % refers to the signal ratio; further: on the % scale 0 is the no-effect control and ±100 the full control effect); details: VDR-UAS-bla HEK293T, beta-lactamase FRET ratio, 16 h; activity change, negative = inhibition: at 61 µM (top of the series) unless noted
# UniProt P11473, sequence (P11473 whole entry, looked up): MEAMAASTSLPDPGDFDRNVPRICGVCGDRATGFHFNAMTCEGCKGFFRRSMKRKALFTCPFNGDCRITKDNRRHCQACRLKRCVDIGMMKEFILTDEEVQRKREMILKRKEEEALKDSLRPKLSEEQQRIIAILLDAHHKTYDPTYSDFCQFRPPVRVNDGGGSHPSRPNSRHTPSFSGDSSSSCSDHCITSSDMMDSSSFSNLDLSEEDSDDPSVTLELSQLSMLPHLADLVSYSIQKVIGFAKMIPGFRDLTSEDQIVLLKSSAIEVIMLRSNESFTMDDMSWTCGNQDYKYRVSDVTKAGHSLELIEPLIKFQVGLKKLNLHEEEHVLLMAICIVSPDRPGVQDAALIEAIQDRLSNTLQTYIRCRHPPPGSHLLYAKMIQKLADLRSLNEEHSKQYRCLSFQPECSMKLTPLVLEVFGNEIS
# Method in brief: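 Inhibition of agonist-driven VDR signalling is scored in VDR-bla cells: 3 nM final 1alpha,25-dihydroxyvitamin D3 plus compound, 16 h at 37C, then beta-lactamase detection by FRET substrate fluorescence after 2 h.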
# [12] = qHTS assay to identify small molecule agonists of the NFkB signaling pathway - cell viability counter screen (AID 1159515; calls by dose curve; further: potency means the concentration at half of the fitted maximal effect; nearly all actives have a fitted effect of over 55% in size)
# Method in brief: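 Cells are seeded (2,000 NFkB-bla ME-180 per well), rested overnight, and dosed with DMSO-dissolved compounds for 5 hr at 37 C. Viability is then read by CellTiter-Glo luminescence after 30 min at room temperature.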
# [13] = qHTS assay to identify small molecule antagonists of the peroxisome proliferator-activated receptor gamma (PPARg) signaling pathway - cell viability counter screen (AID 743194); details: PPARg-bla HEK293H viability, CellTiter-Glo luminescence, 17 h; Potency: co-treated with 50 nM rosiglitazone unless noted; activity change, negative = cytotoxicity: at 62.6 µM (top of the series), co-treated with 50 nM rosiglitazone unless noted; further: potency means the concentration at half of the fitted maximal effect; nearly all actives have a fitted effect of over 55% in size
# Method in brief: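 Viability was measured as CellTiter-Glo luminescence in GeneBLAzer PPARg UAS-bla HEK293H cells. These cells had been exposed 17 h at 37 C to compounds together with rosiglitazone at 50 nM final, with the beta-lactamase readout taken in the same wells.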
# [14] = qHTS assay to identify small molecule agonists of the peroxisome proliferator-activated receptor delta (PPARd) signaling pathway - cell viability counter screen (AID 743211); details: PPARd-bla HEK293H viability, CellTiter-Glo luminescence, 17 h; activity change, negative = cytotoxicity: at 62.6 µM (top of the series) unless noted; further: potency means the concentration at half of the fitted maximal effect; nearly all actives have a fitted effect of over 55% in size
# Method in brief: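 In the same wells used for beta-lactamase reporter measurement, cytotoxicity is scored by CellTiter-Glo. HEK293H PPARd-bla cells receive compound for 17 h at 37C following a 5 h settling period.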
# [15] = target: Peroxisome proliferator-activated receptor delta (Homo sapiens) (UniProt Q03181); assay: qHTS assay to identify small molecule agonists of the peroxisome proliferator-activated receptor delta (PPARd) signaling pathway (AID 743212; calls by dose curve; further: on the % scale 0 is the no-effect control and ±100 the full control effect); details: HEK293H PPARd-UAS-bla, beta-lactamase FRET ratio, 17 h; activation: at 62.6 µM (top of the series) unless noted
# Method in brief: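 Steps: seed PPARd-bla HEK293H cells; incubate 5 h, 37 C, 5% CO2; add compounds in DMSO; incubate, 37 C; add LiveBLAzer B/G FRET substrate; hold 2 h at room temperature; measure fluorescence.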
# [16] = target: Bile acid receptor (Homo sapiens) (UniProt Q96RI1); assay: qHTS assay to identify small molecule agonists of the farnesoid-X-receptor (FXR) signaling pathway (AID 743220; active means well fitted activation curve with a large enough effect in the signal ratio in the repeat runs, not every such curve was filed as active; inconclusive means weak or mixed curves, or effect the other way; the % refers to the signal ratio; further: on the % scale 0 is the no-effect control and ±100 the full control effect); details: HEK293T FXR-UAS-bla, beta-lactamase FRET ratio, 16 h; activation: at 62.6 µM (top of the series) unless noted
# Method in brief: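 FXR-UAS-bla HEK 293T cells carrying a UAS-driven beta-lactamase reporter were plated for 5 h at 37C/5% CO2, then exposed to DMSO-dissolved Tox21 10K compounds for 16 h at 37C. A LiveBLAzer B/G FRET substrate was loaded for 2 h at room temperature before fluorescence reading.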
# [17] = qHTS assay to identify small molecule antagonists of the peroxisome proliferator-activated receptor delta (PPARd) signaling pathway - cell viability counter screen (AID 743213); details: PPARd-bla HEK293H viability, CellTiter-Glo luminescence, 17 h; viability change, negative = cytotoxic: at 62 µM (top of the series) unless noted; further: potency means the concentration at half of the fitted maximal effect; nearly all actives have a fitted effect of over 50% in size
# Method in brief: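 Agonist-stimulated (L165041, 300 nM final) HEK293H PPARd UAS-bla cells are exposed to compounds for 17 h at 37 C, and ATP-based luminescence (CellTiter-Glo) from the same wells reports cytotoxicity.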
# Tags describe the fitted curve by direction and shape or compound fluorescence and quenching.
compound,measurement,setting,value
CCCCOC(=O)COC(=O)c1ccccc1C(=O)OCCCC,Potency,[1],"inactive and inconclusive: 54.9 µM [activator, single point]"
same,Potency,[2],inactive
Cc1cccc(N=Nc2ccc(N(C)C)cc2)c1,Potency,[1],"inconclusive: 21.9 µM [inhibitor, full curve]"
same,"ratio activity, negative = inhibition",[1],inconclusive: -20.3% [at 81.1 µM]
same,Potency,[3],"inconclusive: 24.8 µM [falling, partial curve, poor fit] and inconclusive: 24.3 µM [falling, partial curve, poor fit]"
same,Potency,[4],inactive
same,Potency,[5],inconclusive: 41.9 µM [cytotoxic] and inconclusive: 38.9 µM [cytotoxic]
same,Potency,[6],inactive
same,Potency,[7],"inconclusive: 0.703 µM [rising, partial curve, poor fit]"
same,Potency,[2],"inconclusive: 35.3 µM [cytotoxic, partial curve] and inconclusive: 61.6 µM [cytotoxic, single point]"
CC(C)N(C(=O)SCC(Cl)=C(Cl)Cl)C(C)C,activation,[3],inconclusive: 18.9%
same,Potency,[8],"inconclusive: 60.8 µM [cytotoxic, single point]"
same,Potency,[5],"inconclusive: 60.8 µM [falling, single point]"
same,Potency,[9],"inconclusive: 0.0174 µM [rising, full curve, poor fit]"
same,Potency,[10],inactive
same,Potency,[6],"inconclusive: 60.8 µM [cytotoxic, single point] and inconclusive: 43.6 µM [cytotoxic, partial curve]"
same,Potency,[2],"inconclusive: 60.8 µM [activator, single point]"
same,activation,[2],inconclusive: 0.0139%
Nc1cc(Cl)cc(C(=O)O)c1Cl,Potency,[8],"inconclusive: 12.2 µM [cytotoxic, full curve]"
same,Potency,[5],inactive
same,Potency,[11],inactive
same,Potency,[12],"inconclusive: 0.0012 µM [rising, full curve, poor fit]"
NS(=O)(=O)C(F)(F)C(F)(F)C(F)(F)C(F)(F)C(F)(F)C(F)(F)C(F)(F)C(F)(F)F,"ratio activity, negative = inhibition",[1],inconclusive: -15.9%
same,Potency,[13],active: 43.6 µM
same,activation,[3],inconclusive: -37.4%
same,Potency,[8],active: 49 µM
same,Potency,[5],inconclusive: 49 µM [partial curve]
same,Potency,[14],"inconclusive: 11 µM [cytotoxic, full curve]"
same,activation,[15],inconclusive: 11.8%
same,"ratio activity, negative = inhibition",[9],inconclusive: -34.6%
same,Potency,[10],"inconclusive: 24.5 µM [rising, full curve]"
same,activation,[16],inconclusive: 0.749%
same,Potency,[7],"inconclusive: 49 µM [cytotoxic, partial curve]"
same,activation,[2],inconclusive: 8.46%
CCc1ccccc1N,Potency,[1],inactive
same,Potency,[13],"inconclusive: 1.23 µM [cytotoxic, full curve, poor fit]"
same,activation,[3],inconclusive: -7.81%
same,Potency,[15],inactive
same,Potency,[17],"inconclusive: 0.0174 µM [cytotoxic, full curve, poor fit]"
same,Potency,[2],inactive
